# Experimental data: the supplement of paper PMC8728848
# The list shows a part of the results.
# B1: Strep tagII-anxA1 (Homo sapiens), P04083 (protein)
# chain: MAMVSEFLKQAWFIENEEQEYVQTVKSSKGGPGSAVSPYPTFNPSSDVAALHKAIMVKGVDEATIIDILTKRNNAQRQQIKAAYLQETGKPLDETLKKALTGHLEEVVLALLKTPAQFDADELRAAMKGLGTDEDTLIEILASRTNKEIRDINRVYREELKRDLAKDITSDTSGDFRNALLSLAKGDRSEDFGVNEDLADSDARALYEAGERRKGTDVNVFNTILTTRSYPQLRRVFQKYTKYSKHDMNKVLDLELKGDIEKCLTAIVKCATSKPAFFAEKLHQAMKGVGTRHKALIRIMVSRSEIDMNDIKAFYQKMYGISLCQAILDETKGDYEKILVALCGGN
# Legend:
# Experiment in all cases: glycan array binding signal (z-score within array); higher = stronger binding
# Conditions in all cases: glycan notation: IUPAC condensed, linker removed
# Gal(a1-3)Gal(b1-3)GlcNAc = biological target: Gal(a1-3)Gal(b1-3)GlcNAc
# Outline: (§1)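 Glycan array binding is given as a within-array Z-score, which can be read as non-binding when negative. The arrays, 3228 of them, came from the Consortium for Functional Glycomics database and were retained only where the protein sequence was available. Z-scores were averaged across arrays of the same protein sequence at different concentrations or buffers and across linkers.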
# [1] = biological target: Gal(a1-3)Gal(b1-3)GlcNAc(b1-2)Man(a1-3)[Gal(a1-3)Gal(b1-3)GlcNAc(b1-2)Man(a1-6)]Man(b1-4)GlcNAc(b1-4)GlcNAc
# Outline: as §1
# [2] = biological target: Gal(a1-3)Gal(b1-3)GlcNAc(b1-3)GalNAc
# Outline: as §1
# [3] = biological target: Gal(a1-3)Gal(b1-3)GlcNAc(b1-6)GalNAc
# Outline: as §1
# [4] = biological target: Gal(a1-3)Gal(b1-3)[Fuc(a1-4)]GlcNAc(b1-2)Man(a1-3)[Gal(a1-3)Gal(b1-3)[Fuc(a1-4)]GlcNAc(b1-2)Man(a1-6)]Man(b1-4)GlcNAc(b1-4)GlcNAc
# Outline: as §1
# Gal(a1-3)Gal(b1-4)Glc = biological target: Gal(a1-3)Gal(b1-4)Glc
# Outline: as §1
# Gal(a1-3)Gal(b1-4)GlcNAc = biological target: Gal(a1-3)Gal(b1-4)GlcNAc
# Outline: as §1
# [5] = biological target: Gal(a1-3)Gal(b1-4)GlcNAc(b1-3)GalNAc
# Outline: as §1
# [6] = biological target: Gal(a1-3)Gal(b1-4)GlcNAc(b1-6)GalNAc
# Outline: as §1
# [7] = biological target: Gal(a1-3)Gal(b1-4)[Fuc(a1-3)]GlcNAc
# Outline: as §1
# [8] = biological target: Gal(a1-3)Gal(b1-4)[Fuc(a1-3)]GlcNAc(b1-2)Man(a1-3)[Gal(a1-3)Gal(b1-4)[Fuc(a1-3)]GlcNAc(b1-2)Man(a1-6)]Man(b1-4)GlcNAc(b1-4)GlcNAc
# Outline: as §1
# Gal(a1-3)GalNAc = biological target: Gal(a1-3)GalNAc
# Outline: as §1
# [9] = biological target: Gal(a1-3)[Gal(a1-4)]Gal(b1-4)GlcNAc
# Outline: as §1
# [10] = biological target: Gal(a1-4)Gal(b1-3)GlcNAc(b1-2)Man(a1-3)[Gal(a1-4)Gal(b1-3)GlcNAc(b1-2)Man(a1-6)]Man(b1-4)GlcNAc(b1-4)GlcNAc
# Outline: as §1
# Gal(a1-4)Gal(b1-4)Glc = biological target: Gal(a1-4)Gal(b1-4)Glc
# Outline: as §1
# Gal(a1-4)Gal(b1-4)GlcNAc = biological target: Gal(a1-4)Gal(b1-4)GlcNAc
# Outline: as §1
# [11] = biological target: Gal(a1-4)Gal(b1-4)GlcNAc(b1-2)Man(a1-3)[Gal(a1-4)Gal(b1-4)GlcNAc(b1-2)Man(a1-6)]Man(b1-4)GlcNAc(b1-4)GlcNAc
# Outline: as §1
# [12] = biological target: Gal(a1-4)Gal(b1-4)GlcNAc(b1-3)Gal(b1-4)Glc
# Outline: as §1
# Gal(a1-4)GlcNAc = biological target: Gal(a1-4)GlcNAc
# Outline: as §1
# Gal(a1-6)Glc = biological target: Gal(a1-6)Glc
# Outline: as §1
# Gal(b1-2)Gal = biological target: Gal(b1-2)Gal
# Outline: as §1
# Gal(b1-3)Gal = biological target: Gal(b1-3)Gal
# Outline: as §1
# Gal(b1-3)Gal(b1-4)GlcNAc = biological target: Gal(b1-3)Gal(b1-4)GlcNAc
# Outline: as §1
# [13] = biological target: Gal(b1-3)Gal(b1-4)GlcNAc(b1-2)Man(a1-3)[Gal(b1-3)Gal(b1-4)GlcNAc(b1-2)Man(a1-6)]Man(b1-4)GlcNAc(b1-4)GlcNAc
# Outline: as §1
# Gal(b1-3)GalNAc = biological target: Gal(b1-3)GalNAc
# Outline: as §1
# [14] = biological target: Gal(b1-3)GalNAc(a1-3)[Fuc(a1-2)]Gal(b1-4)Glc
# Outline: as §1
# [15] = biological target: Gal(b1-3)GalNAc(a1-3)[Fuc(a1-2)]Gal(b1-4)GlcNAc
# Outline: as §1
# [16] = biological target: Gal(b1-3)GalNAc(b1-3)Gal(a1-4)Gal(b1-4)Glc
# Outline: as §1
# [17] = biological target: Gal(b1-3)GalNAc(b1-4)Gal(b1-4)Glc
# Outline: as §1
# [18] = biological target: Gal(b1-3)GalNAc(b1-4)[Neu5Ac(a2-3)]Gal(b1-4)Glc
# Outline: as §1
# Gal(b1-3)GlcNAc = biological target: Gal(b1-3)GlcNAc
# Outline: as §1
# [19] = biological target: Gal(b1-3)GlcNAc(a1-3)Gal(b1-4)GlcNAc
# Outline: as §1
# [20] = biological target: Gal(b1-3)GlcNAc(a1-6)Gal(b1-4)GlcNAc
# Outline: as §1
# [21] = biological target: Gal(b1-3)GlcNAc(b1-2)Man(a1-3)[Gal(b1-3)GlcNAc(b1-2)Man(a1-6)]Man(b1-4)GlcNAc(b1-4)GlcNAc
# Outline: as §1
# [22] = biological target: Gal(b1-3)GlcNAc(b1-2)Man(a1-3)[Gal(b1-3)GlcNAc(b1-2)Man(a1-6)]Man(b1-4)GlcNAc(b1-4)[Fuc(a1-6)]GlcNAc
# Outline: as §1
# [23] = biological target: Gal(b1-3)GlcNAc(b1-2)Man(a1-3)[GlcNAc(b1-4)][Gal(b1-3)GlcNAc(b1-2)Man(a1-6)]Man(b1-4)GlcNAc(b1-4)GlcNAc
# Outline: as §1
# [24] = biological target: Gal(b1-3)GlcNAc(b1-2)[Gal(b1-3)GlcNAc(b1-6)]Man(a1-6)[Gal(b1-3)GlcNAc(b1-2)Man(a1-3)]Man(b1-4)GlcNAc(b1-4)GlcNAc
# Outline: as §1
binder,measurement,setting,value
B1,glycan array binding signal (z-score),Gal(a1-3)Gal(b1-3)GlcNAc,-0.449
same,glycan array binding signal (z-score),[1],1.78
same,glycan array binding signal (z-score),[2],-0.699
same,glycan array binding signal (z-score),[3],-0.473
same,glycan array binding signal (z-score),[4],2.11
same,glycan array binding signal (z-score),Gal(a1-3)Gal(b1-4)Glc,-0.638
same,glycan array binding signal (z-score),Gal(a1-3)Gal(b1-4)GlcNAc,-0.7
same,glycan array binding signal (z-score),[5],-0.559
same,glycan array binding signal (z-score),[6],-0.151
same,glycan array binding signal (z-score),[7],-0.27
same,glycan array binding signal (z-score),[8],3.62
same,glycan array binding signal (z-score),Gal(a1-3)GalNAc,0.115
same,glycan array binding signal (z-score),[9],0.294
same,glycan array binding signal (z-score),[10],0.56
same,glycan array binding signal (z-score),Gal(a1-4)Gal(b1-4)Glc,-0.567
same,glycan array binding signal (z-score),Gal(a1-4)Gal(b1-4)GlcNAc,-0.486
same,glycan array binding signal (z-score),[11],0.154
same,glycan array binding signal (z-score),[12],-0.354
same,glycan array binding signal (z-score),Gal(a1-4)GlcNAc,-0.49
same,glycan array binding signal (z-score),Gal(a1-6)Glc,-0.03
same,glycan array binding signal (z-score),Gal(b1-2)Gal,-0.402
same,glycan array binding signal (z-score),Gal(b1-3)Gal,-0.548
same,glycan array binding signal (z-score),Gal(b1-3)Gal(b1-4)GlcNAc,0.264
same,glycan array binding signal (z-score),[13],0.155
same,glycan array binding signal (z-score),Gal(b1-3)GalNAc,-0.513
same,glycan array binding signal (z-score),[14],-0.278
same,glycan array binding signal (z-score),[15],-0.399
same,glycan array binding signal (z-score),[16],-0.44
same,glycan array binding signal (z-score),[17],-0.696
same,glycan array binding signal (z-score),[18],-0.336
same,glycan array binding signal (z-score),Gal(b1-3)GlcNAc,-0.082
same,glycan array binding signal (z-score),[19],-0.379
same,glycan array binding signal (z-score),[20],-0.44
same,glycan array binding signal (z-score),[21],1.06
same,glycan array binding signal (z-score),[22],-0.167
same,glycan array binding signal (z-score),[23],1.59
same,glycan array binding signal (z-score),[24],-0.255
